# Results reported in article PMC12136788.
# The other results are listed elsewhere or left out.
# B1: chr3:10015032:10015033:+_ENSMUSG00000027533_ENSMUST00000029046|mus_mus|mus_mus_mus_hu_True|28_108 (ssRNA)
# RNA: GGGAGUUCUACAGUCCGACGAUCGUUGUUGCCAUCACAAGUGAUGAUACAAUCUGGCUUGGCCAUUGCGCCCAUUUUUCGCAAAGCUAUUCCCACUCCUAGCUCCUUCAUGUACUCAUCAAAGCCUUUGCUGUCCACCAGGCGCAACAGAGGAUUGAGCAUCA
# B2: chrX:153986339:153986340:-_ENSMUSG00000046873_ENSMUST00000058098|mus_mus|FALSE|FALSE (ssRNA)
# RNA: GGGAGUUCUACAGUCCGACGAUCCACCAGGGACAUAAGACAUUCCAAGCUUUACUAUGUCAACAUAUAUUUACAGUAACUAUUCGACAAUCCUUUUUACAGCUUAAAUAGAAGCAUGCUUUUCUAGCCAUAAAUAACACUAAUCAACAGAGGAUUGAGCAUCA
# B3: 246829073_246829193_2373_3pUTR_ENSG00000162852_ENST00000366513|human|control|control (ssRNA)
# RNA: GGGAGUUCUACAGUCCGACGAUCUCCAGUGCUUCAGUUCUGCCACUCCCUGAAGUAACUUAGUGUAAUAGAAGUCCAUGUUGUCUGCAAAGUCAGUACAAACAGGUGACUCCAUGUCACCGAAAGUGCAGUAUAAUGCAGUUCCAACAGAGGAUUGAGCAUCA
# B4: chr2:165877891:165877892:+_ENSMUSG00000027678_ENSMUST00000088095|mus_mus|FALSE|FALSE (ssRNA)
# RNA: GGGAGUUCUACAGUCCGACGAUCGAACCUCUGGAUACAUCUUCGGAUUAUGUCUUCAAAGCCAGGCCUCAUGGAAGAUCUAAGUGAGUUUGUAUCUAUAUUGACAACCUUUCCGGAAAGGUCAUGUCUGGUAAUAAAGCUCUCCAACAGAGGAUUGAGCAUCA
# B5: chr18:25636641:25636642:-_ENSMUSG00000024268_ENSMUST00000025117|mus_mus|FALSE|FALSE (ssRNA)
# RNA: GGGAGUUCUACAGUCCGACGAUCUCAUUUACCAAAGAUAAAUAUCGUGCUUUCAUUAAAUAGUUUUCCUUGUUUUUUCUCUAUCAUUACAAUUAAAAGUCCUACAAAAUAUGCAAAUUUAUUUACAGAAAAACAGAGCCAGCACAACAGAGGAUUGAGCAUCA
# B6: chr6:118368571:118368572:-_ENSMUSG00000030138_ENSMUST00000032237|mus_mus|motif|central (ssRNA)
# RNA: GGGAGUUCUACAGUCCGACGAUCGUCUUGCAGGUGCCGUUUCUUUUUCUUCUCAGCUUUAGGCCCACUGUGCUUCUUCCGGUGUUUCUUGUGGUCCUUGGUCUCCAUGGUGGCUAUUUAUCUACUACAAAUAAGUCUUACCUUCAACAGAGGAUUGAGCAUCA
# B7: chr11:104189435:104189436:+_ENSMUSG00000018411_ENSMUST00000106992|mus_mus|motif|central (ssRNA)
# RNA: GGGAGUUCUACAGUCCGACGAUCGCCCUGGGAGCCUGAUCACAAACCCUGCUUGGCCAAGGAAGCAGACACUUCAUCGGCGGGUGUGGCAAGCUGUGGUGAGUCCACCAUGUCGAUGCUGCCCGUGGAAGACACAUUGCUGAGCAACAGAGGAUUGAGCAUCA
# B8: chr6:38652254:38652255:-_ENSG00000124767_ENST00000373365|hu_hu|hu_hu_hu_mus_False|1_8 (ssRNA)
# RNA: GGGAGUUCUACAGUCCGACGAUCCGAGAACUUCAUAGCAGGGAAGUCAAGCUUCUGCAGGAGGGUCAGUCCAAGAACCCUCGUAUAAAAAUCCAGGGACUUCUUAGGAUCCUUAAUUCUUAGCAUCGUCUGCUGCAAUAGAAACAACAGAGGAUUGAGCAUCA
# B9: chr14:89305849:89305850:+_ENSG00000165533_ENST00000346301|hu_hu|motif|central (ssRNA)
# RNA: GGGAGUUCUACAGUCCGACGAUCAGCAUUUUCAUCCAGCAUCAUUUCUGCAAUUCCUUCCUGAUCUACAUCAAUUUCAUCGGUGUAUACCAUUUCUGUUAGCGCUCUUGCUUUUAAGAUCCAAGCUGCCUGGUCAUAAGGGGACAACAGAGGAUUGAGCAUCA
# B10: chr1:160275524:160275525:-_ENSG00000122218_ENST00000241704|hu_hu|FALSE|FALSE (ssRNA)
# RNA: GGGAGUUCUACAGUCCGACGAUCACAUAAAGCAUCCAGUUUGCGGUUACAGAUCACAAUGGCGUGUUUGGCUAGUAGUGCUACAUGUGACAUGUCUGCUGACCAGAUAACGUAUUUCACUUUAGAAAUCUUCACAGAUGCCAGCAACAGAGGAUUGAGCAUCA
# B11: chr4:148551591:148551592:-_ENSMUSG00000063077_ENSMUST00000060537|mus_hu|mus_mus_mus_hu_False|1_1 (ssRNA)
# RNA: GGGAGUUCUACAGUCCGACGAUCACCUGACAAAAUUAAAUAUCCCUGUAAAUUAGACAAUAAGCAGCAGGCAACAAAGUCUUUGCUUUGGAAUAUGUGCCAGGAAAAGUCAUCUUGUUUUUAGAUCUCAAGAGACACAACCAUCAACAGAGGAUUGAGCAUCA
# B12: chr1:172123744:172123745:-_ENSMUSG00000026667_ENSMUST00000150821|mus_hu|FALSE|FALSE (ssRNA)
# RNA: GGGAGUUCUACAGUCCGACGAUCAAACGCAUUGUUCACACUUUUUAGGAAUAUAGGAAAGUGGAAAAUAAAAGUUCUUUGCUAUUCAGCAGGAAAGAGUUUAAAAGACUUGAAUGGAAAUCAGAAAUUUAGGGAUUUGAGAAACAACAGAGGAUUGAGCAUCA
# B13: 41988903_41989023_1755_CDS_ENSG00000174197_ENST00000570161|human|control|control (ssRNA)
# RNA: GGGAGUUCUACAGUCCGACGAUCAUUCUGAUUAGCAUUCACUACCUUUGCGGCUGUUGCAAUCUUAAGCAUAGUUGUUCUCUUUCUGCCCAAGUCCUCUUUUCCUGAAAGUGAGUCUCCAACUGAAUCCUUUGAAUCGUCGAGCAACAGAGGAUUGAGCAUCA
# B14: chr9:123232447:123232448:-_ENSG00000136861_ENST00000349780|hu_mus|FALSE|FALSE (ssRNA)
# RNA: GGGAGUUCUACAGUCCGACGAUCCAAUUGGAACUGAUUGUGCUCUUCAAGGCAAAUACUCAGAUACGAUGUUUGAUCGCUAUAAAAUGAAAACGGCUCUUCUUCUCGACUCCGAAUCUCACUGAGCUGCUCCUGCAGGGCCUUCAACAGAGGAUUGAGCAUCA
# Biological target: T1, UNK ZnF1-3 (human, UniProt Q9C0B0 31-174)
# T1 sequence: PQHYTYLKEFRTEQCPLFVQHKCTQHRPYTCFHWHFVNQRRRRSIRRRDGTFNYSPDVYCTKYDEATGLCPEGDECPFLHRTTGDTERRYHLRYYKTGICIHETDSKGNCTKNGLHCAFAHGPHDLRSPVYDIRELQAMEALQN
# Assay: nsRBNS (natural sequence RNA bind-n-seq); RBNS binding buffer (assumed for nsRBNS): 25 mM Tris pH 7.5, 150 mM KCl, 3 mM MgCl2, 0.01% Triton X-100, 500 ug/ml BSA, 20 U/ml SUPERase-In, 4 C; UNK is unkempt and MSI1 is Musashi-1; names of the RNAs are library labels; protein concentration not given here; high values mean tight binding
row,Binder,binding signal [enrichment R]
1,B1,0.785
2,B2,1.2
3,B3,0.867
4,B4,0.796
5,B5,1.15
6,B6,0.282
7,B7,0.915
8,B8,0.785
9,B9,0.982
10,B10,0.823
11,B11,1.51
12,B12,1.86
13,B13,0.511
14,B14,0.781
